# The antibiotic and cytotoxicity screens of Wong et al. (2023)
# The other results are listed elsewhere or left out.
# Tested on: HSkMC (human skeletal muscle cells)
# Assay: cytotoxicity call (relative viability < 0.9)
# Conditions: 10 µM
row,SMILES,cytotoxicity call
1,C[C@@H]1CN([C@H](C)CO)C(=O)c2cc(NS(=O)(=O)c3ccccc3)ccc2O[C@@H]1CN(C)S(C)(=O)=O,inactive
2,OC[C@@H](O)[C@@H](O)CO,inactive
3,C[C@H]1CCCCO[C@H](CN(C)S(=O)(=O)c2cccs2)[C@@H](C)CN([C@@H](C)CO)C(=O)c2cc(NC(=O)c3ccccc3)ccc2O1,inactive
4,C[C@H](CO)N1C[C@H](C)[C@@H](CN(C)C(=O)NC2CCCCC2)Oc2ccc(NC(=O)CCN3CCOCC3)cc2C1=O,inactive
5,CCS(=O)(=O)N1CCOC[C@]2(CC[C@@H](Cn3cncn3)O2)C1,inactive
6,Cc1ccc(S(=O)(=O)Nc2cccc3c2O[C@H](CN(C)S(C)(=O)=O)[C@H](C)CN([C@H](C)CO)C3=O)cc1,inactive
7,C[C@H](CO)N1C[C@H](C)[C@H](CN(C)Cc2ccncc2)Oc2ncc(C#Cc3cccc(F)c3)cc2C1=O,inactive
8,CC(C)CC#Cc1ccc2c(c1)O[C@H](CN(C)S(=O)(=O)c1ccc(F)cc1)[C@H](C)CN([C@@H](C)CO)S2(=O)=O,inactive

# Tested on: HepG2
# Assay: cytotoxicity call (relative viability < 0.9)
# Conditions: 10 µM
row,SMILES,cytotoxicity call
1,Cc1cc(C(=O)Nc2cccc3c2O[C@@H](CN(C)C(=O)Nc2c(C)noc2C)[C@@H](C)CN([C@H](C)CO)C3=O)n(C)n1,inactive
2,CN1CCN(C(=O)C[C@@H]2C[C@H]3c4cc(NC(=O)c5ccc6c(c5)OCO6)ccc4O[C@H]3[C@@H](CO)O2)CC1,inactive
3,C[C@@H]1CN([C@H](C)CO)C(=O)c2cc(NC(=O)c3ccccc3)ccc2O[C@@H](C)CCCCO[C@H]1CN(C)Cc1ccc(C(=O)O)cc1,inactive
4,C[C@H](CO)N1C[C@H](C)[C@H](CN(C)C(=O)Nc2ccc(C(F)(F)F)cc2)Oc2ccc(NC(=O)CCCCCC(=O)Nc3ccccc3N)cc2C1=O,active
5,CNC(=O)c1c(N)cnn1C,inactive
6,C[C@@H]1CN([C@H](C)CO)C(=O)c2cc(NS(=O)(=O)c3ccc(F)cc3)ccc2O[C@@H](C)CCCCO[C@@H]1CN(C)S(=O)(=O)c1cn(C)cn1,inactive
7,C[C@@H]1CCCCO[C@H](CN(C)Cc2ccc3c(c2)OCO3)[C@@H](C)CN([C@@H](C)CO)C(=O)c2cc(NS(=O)(=O)c3cccs3)ccc2O1,inactive
8,CCOC[C@@H](O)CS(=O)(=O)c1ccccn1,inactive
9,CC(C)NC(=O)Nc1ccc2c(c1)C(=O)N([C@H](C)CO)C[C@@H](C)[C@H](CN(C)S(=O)(=O)c1cn(C)cn1)O2,inactive
10,Cn1c(=O)c2[nH]c(NCCN3CCOCC3)nc2n(C)c1=O,inactive
11,C[C@@H]1CCCCO[C@@H](CN(C)C(=O)CCC(F)(F)F)[C@H](C)CN([C@H](C)CO)C(=O)c2cc(NC(=O)C3CCCCC3)ccc2O1,inactive
12,COc1ccc([Si](C)(C)[C@H]2[C@H](CCO)O[C@@]3(C(=O)N(Cc4cccc(N5C(=O)c6cccc7cccc5c67)c4)c4ccccc43)[C@@H]2C)cc1,active
13,Cc1ccc(S(=O)(=O)Nc2ccc3c(c2)CC(=O)N([C@H](C)CO)C[C@H](C)[C@H](CN(C)CC2CC2)O3)cc1,inactive
14,C[C@@H]1CN([C@H](C)CO)C(=O)Cc2cc(NS(=O)(=O)c3cccs3)ccc2O[C@H]1CN(C)Cc1ccc(Cl)c(Cl)c1,inactive
15,Cn1cnc(S(=O)(=O)N[C@H]2CC[C@@H](CC(=O)NCC3CC3)O[C@H]2CO)c1,inactive
16,Cc1ccc(S(=O)(=O)Nc2ccc3c(c2)CC(=O)N([C@@H](C)CO)C[C@@H](C)[C@@H](CN(C)CC2CC2)O3)cc1,inactive
17,C[C@@H]1CN([C@@H](C)CO)C(=O)Cc2cc(NC(=O)Nc3ccc(C(F)(F)F)cc3)ccc2O[C@H]1CN(C)C(=O)Nc1ccccc1,inactive
18,Cc1noc(C)c1S(=O)(=O)Nc1ccc2c(c1)C(=O)N([C@@H](C)CO)C[C@H](C)[C@H](CN(C)C(=O)Nc1ccc(C(F)(F)F)cc1)OCCCC[C@H](C)O2,inactive
19,C[C@H](CO)N1C[C@H](C)[C@H](CN(C)S(=O)(=O)c2cn(C)cn2)Oc2ncc(Br)cc2C1=O,inactive
20,NCC[C@H]1CC[C@@H](NC(=O)C2CC2)[C@@H](CO)O1,inactive
21,C[C@H](CO)N1C[C@H](C)[C@@H](CN(C)Cc2ccc(C(F)(F)F)cc2)Oc2ccc(NC(=O)Nc3ccccc3)cc2C1=O,active
22,CCS(=O)(=O)Nc1ccc2c(c1)C(=O)N(C)C[C@H](OC)[C@@H](C)CN(Cc1ccccn1)[C@H](C)CO2,inactive
23,C[C@@H]1CN([C@@H](C)CO)C(=O)c2cccc(NC(=O)c3ccncc3)c2O[C@@H]1CN(C)S(=O)(=O)c1cn(C)cn1,inactive
